Results reported in PubChem BioAssay AID1454 (National Center for Advancing Translational Sciences (NCATS), 2008).
About 550 (0.42%) of roughly 130,000 compounds were called active. Inconclusive means that the source gave no clear call. Such entries were picked first, then a sample of the others. The call rests on the fitted dose curve; in most records, active means well fitted inhibition curve with a large enough effect; inconclusive means small, poorly fitted or top-dose-only effect, or effect the other way; inactive means flat fitted curve, though single readings scatter. No potency is given beside an inconclusive call; the fits are too rough.

Experiment: qHTS Assay for Inhibitors of the ERK Signaling Pathway using a Homogeneous Screening Assay; Stimulation with EGF; further: nearly all actives have a fitted effect of over 55% in size
Conditions: HEK293-V1b, EGF-stimulated phospho-ERK AlphaScreen
Method in brief: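 Readout: AlphaScreen signal for phosphorylated ERK in lysed HEK293 cells stably expressing V1b. Stimulus 25 nM EGF, 5 min, following 30 min compound exposure. Data scaled to DMSO basal and full EGF activation.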
Potency means the concentration at half of the fitted maximal effect; tags describe the fitted curve by direction and shape.

Question: For `CCCn1nc(C(=O)OCC(=O)c2c(N)n(C)c(=O)n(C)c2=O)c2ccccc2c1=O`, which Potency is on record?
Answer: inactive

Question: Which Potency does the source give for `COc1ccc(C(CCNCc2ccc(OC(C)C)cc2)C(C)C)cc1` (stereo unspecified) here?
Answer: inconclusive [inhibitor, single point]

Question: Which Potency does the source give for `Cc1cc(=O)n2[nH]c(N)c(N=Nc3ccccc3)c2n1` here?
Answer: inactive

Question: With `O=C(CCCCn1c(=O)c2ccccc2n(Cc2ccccc2F)c1=O)NC1CCN(Cc2ccccc2)CC1` as the molecule, how does the Potency read?
Answer: inconclusive [inhibitor, partial curve, poor fit]

Question: With `COc1cc(/C=C(\C#N)C(=O)Nc2ccc3c(c2)OCCO3)ccc1O` as the molecule, how does the Potency read?
Answer: inconclusive [inhibitor, single point]

Question: For `O=C(CCCCCn1c(=S)[nH]c2ccc(N3CCOCC3)cc2c1=O)NCc1ccc2c(c1)OCO2`, which Potency is on record?
Answer: inactive

Question: With `Cc1ccc(Nc2c(-c3ccc(N(C)C)cc3)nc3ncccn23)cc1` as the molecule, how does the Potency read?
Answer: inconclusive [inhibitor, single point]

Question: For `C/C(=N\NC(=O)c1cc2ccccc2cc1O)c1cc2ccccc2o1`, which Potency is on record?
Answer: inconclusive [inhibitor, single point]

Question: With `COc1cc(Cl)c(C)cc1NC(=O)COC(=O)c1cc[n+]([O-])cc1` as the molecule, how does the Potency read?
Answer: inconclusive [activator, partial curve, poor fit]

Question: Which Potency does the source give for `C[C@@H]1NC(=O)[C@H](CCC(N)=O)NC(=O)c2cc([N+](=O)[O-])cc(I)c2NCCC[C@@H](C(N)=O)NC1=O` here?
Answer: inactive

Question: With `N#Cc1ccc(CN2CC[C@@]3(CCCN(C(=O)c4cccc(F)c4)C3)C2)cc1` as the molecule, how does the Potency read?
Answer: inactive

Question: With `O=c1c(O)c(-c2ccc(O)c(O)c2)oc2c(OC3OC(CO)C(O)C(O)C3O)c(O)cc(O)c12` (stereo unspecified) as the molecule, how does the Potency read?
Answer: inactive

Question: With `COc1cccc(Nc2ncc3nc(-c4ccccc4)c(=O)n(C4CC4)c3n2)c1` as the molecule, how does the Potency read?
Answer: inconclusive [activator, partial curve]

Question: With `COc1cccc(N/C(=N/C(=S)Nc2ccc(C)cc2C)Nc2nc(C)cc(C)n2)c1` as the molecule, how does the Potency read?
Answer: inconclusive [inhibitor, full curve, poor fit]

Question: Which Potency does the source give for `COc1ccc(NC(=O)Cn2ccc3c(OC)cccc3c2=O)cc1` here?
Answer: inconclusive [inhibitor, single point]

Question: For `CSc1ccc(CN2CCC(CO)(Cc3ccc(Cl)cc3)CC2)cc1`, which Potency is on record?
Answer: inconclusive [inhibitor, partial curve]

Question: With `Cn1c(Oc2ccc3c(c2)OCO3)nc2c1c(=O)n(Cc1ccccc1)c(=O)n2C` as the molecule, how does the Potency read?
Answer: inconclusive [inhibitor, partial curve]

Question: For `COc1cc(/C=C2/SC(=S)N(CC(=O)O)C2=O)ccc1OC(=O)c1cccs1`, which Potency is on record?
Answer: inconclusive [inhibitor, partial curve, poor fit]

Question: For `CCC(=O)NC(c1ccccc1OC)c1ccc2cccnc2c1O` (stereo unspecified), which Potency is on record?
Answer: inconclusive [inhibitor, partial curve]

Question: With `Oc1c(Br)cc(/C=N/NC(=S)NCc2ccco2)cc1Br` as the molecule, how does the Potency read?
Answer: inconclusive [inhibitor, single point]

Question: For `CCOC(=O)c1ccc(NC(=O)c2cccc(C)c2[N+](=O)[O-])cc1`, which Potency is on record?
Answer: inconclusive [inhibitor, single point]

Question: Which Potency does the source give for `CCN(CC)c1ccc(/C=N/NC(=S)NCc2ccccc2)c(O)c1` here?
Answer: inconclusive [inhibitor, single point]

Question: Which Potency does the source give for `CCN(CC)c1ccc(CNc2nc3ccccc3n2CCN2CCCCC2)cc1` here?
Answer: inconclusive [inhibitor, partial curve]

Question: For `Cc1cc2ccc(=O)oc2cc1OC[C@@H](O)C(C)(C)O`, which Potency is on record?
Answer: inactive

Question: Which Potency does the source give for `Cc1ccc(S(=O)(=O)N2CCOC2CNC(=O)C(=O)NCCc2c[nH]c3ccccc23)cc1` (stereo unspecified) here?
Answer: inconclusive [inhibitor, partial curve]

Question: With `CCc1nnc(NS(=O)(=O)c2ccc(Nc3ccc([N+](=O)[O-])c4nonc34)cc2)s1` as the molecule, how does the Potency read?
Answer: inconclusive [inhibitor, partial curve]

Question: With `CC(=O)N1CC2(CC2)CC1c1ccccc1` (stereo unspecified) as the molecule, how does the Potency read?
Answer: inactive

Question: Which Potency does the source give for `O=[N+]([O-])c1cc(C(F)(F)F)cc([N+](=O)[O-])c1NCCCN1CCOCC1` here?
Answer: inactive

Question: Which Potency does the source give for `O=c1c(-c2ccc(Cl)cc2)nc2cncnc2n1Cc1ccccc1Cl` here?
Answer: inactive

Question: With `CC(NC(=O)COc1ccccc1-c1ccccc1)c1ccccc1` (stereo unspecified) as the molecule, how does the Potency read?
Answer: inconclusive [inhibitor, single point]

Question: With `O=C(Cc1cccc2ccccc12)Nc1nnc(-c2cccc([N+](=O)[O-])c2)s1` as the molecule, how does the Potency read?
Answer: inconclusive [inhibitor, partial curve]

Question: With `CCc1ccc2c(c1)C1(NN=C(c3ccccc3)S1)C(=O)N2` (stereo unspecified) as the molecule, how does the Potency read?
Answer: inconclusive [inhibitor, single point]

Question: Which Potency does the source give for `COc1ccc(/C=N/NC(=O)c2ccc(COc3cccc4cccnc34)cc2)cc1OC` here?
Answer: inconclusive [inhibitor, single point]

Question: Which Potency does the source give for `CN(CCCCCNC(=O)/C=N/O)Cc1ccccc1` here?
Answer: inactive

Question: For `O=C(c1ccccc1F)N1CCN(c2ccc([N+](=O)[O-])c(NCC3CCCO3)c2)CC1` (stereo unspecified), which Potency is on record?
Answer: inconclusive [inhibitor, single point]

Question: Which Potency does the source give for `COc1ccccc1CN1C[C@@H]2C[C@@H](c3ccc4nsnc4c3)N3CCC[C@@]23C1=O` here?
Answer: inconclusive [inhibitor, partial curve, poor fit]

Question: With `COc1ccc(/C=C/C(=O)c2c(O)c(OC)c3occc3c2OC)cc1` as the molecule, how does the Potency read?
Answer: inconclusive [inhibitor, single point]

Question: Which Potency does the source give for `CC(=O)Nc1ccc(S(=O)(=O)NCC(=O)NC(C)c2ccc(S(N)(=O)=O)cc2)cc1` (stereo unspecified) here?
Answer: inconclusive [activator, single point]

Question: Which Potency does the source give for `Cc1cc(/C=C2\SC(=S)N(Cc3ccco3)C2=O)c(C)n1-c1ccccc1` here?
Answer: inconclusive [inhibitor, partial curve]

Question: Which Potency does the source give for `CC(=O)n1cc([C@H]2C=C(C(=O)N3CCN(Cc4ccccc4)CC3)O[C@@H](OCCCCO)C2)c2ccccc21` here?
Answer: inconclusive [inhibitor, single point]

Question: With `CCOC(=O)C1CCN(c2ncnc3cc(OC)c(OC)cc23)CC1` as the molecule, how does the Potency read?
Answer: inconclusive [inhibitor, partial curve]
